Assay results from publication PMC4336329 (PLoS ONE, 2015).
About 2,200 (0.71%) of roughly 310,000 compounds showed an effect of 50% or more. The effect is printed as a negative number. The list shows a part of the results.

target: human ether-à-go-go-related gene (hERG) potassium channel (human, UniProt Q12809); assay: primary screen, population patch clamp on CHO cells stably expressing hERG
Sequence (Q12809 whole entry, looked up): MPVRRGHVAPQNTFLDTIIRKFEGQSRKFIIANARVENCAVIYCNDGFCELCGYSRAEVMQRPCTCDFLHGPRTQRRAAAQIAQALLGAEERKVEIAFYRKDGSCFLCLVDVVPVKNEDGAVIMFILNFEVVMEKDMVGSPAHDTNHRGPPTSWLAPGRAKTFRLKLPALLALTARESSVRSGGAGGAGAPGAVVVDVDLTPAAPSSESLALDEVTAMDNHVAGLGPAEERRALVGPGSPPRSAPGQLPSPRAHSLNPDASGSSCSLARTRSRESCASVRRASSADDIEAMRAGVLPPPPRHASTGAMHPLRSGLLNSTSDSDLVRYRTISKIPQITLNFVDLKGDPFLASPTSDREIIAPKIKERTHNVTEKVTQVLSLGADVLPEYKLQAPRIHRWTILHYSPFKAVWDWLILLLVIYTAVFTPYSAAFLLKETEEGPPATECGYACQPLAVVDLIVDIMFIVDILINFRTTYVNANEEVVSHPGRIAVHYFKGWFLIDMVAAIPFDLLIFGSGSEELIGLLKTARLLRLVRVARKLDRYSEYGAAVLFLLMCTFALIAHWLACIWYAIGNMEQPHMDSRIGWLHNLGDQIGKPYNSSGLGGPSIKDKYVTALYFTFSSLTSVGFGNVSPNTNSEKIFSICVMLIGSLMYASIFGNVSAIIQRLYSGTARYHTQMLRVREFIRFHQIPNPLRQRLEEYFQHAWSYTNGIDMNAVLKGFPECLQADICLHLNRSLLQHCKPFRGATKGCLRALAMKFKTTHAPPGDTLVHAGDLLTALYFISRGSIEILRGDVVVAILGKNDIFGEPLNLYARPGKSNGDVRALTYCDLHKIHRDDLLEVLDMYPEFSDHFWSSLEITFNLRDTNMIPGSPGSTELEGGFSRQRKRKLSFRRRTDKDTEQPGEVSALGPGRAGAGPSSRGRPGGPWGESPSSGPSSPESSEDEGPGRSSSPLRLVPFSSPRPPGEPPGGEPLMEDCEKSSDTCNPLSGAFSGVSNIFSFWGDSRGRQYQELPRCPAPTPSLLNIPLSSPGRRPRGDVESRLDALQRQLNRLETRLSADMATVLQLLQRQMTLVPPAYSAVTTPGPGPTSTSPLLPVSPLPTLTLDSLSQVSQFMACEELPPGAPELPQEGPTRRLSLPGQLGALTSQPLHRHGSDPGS

SMILES	hERG current change (%, negative = inhibition) at 1uM
COc1ccccc1N(CC(O)Cn1ccnc1C)S(=O)(=O)c1ccc(C)cc1.Cl (stereo not drawn)	-10.5%
O=C(OC(C(=O)NCC1CCCO1)c1ccccn1)c1cccs1 (stereo not drawn)	12.4%
CCN(CC)CCCN1C(=O)c2oc3ccccc3c(=O)c2C1c1cccnc1 (stereo not drawn)	5.73%
CCCc1nnc(SCC(=O)N2CCOCC2)n1C	11.4%
COc1ccccc1N(CC(=O)NC1CCCCC1)C(=O)CCC(=O)Nc1nccs1	6%
COCCCNC(=S)NNC(=S)Nc1cccc(Cl)c1	18.9%
COc1cccc(CN2CCNC(=O)C2CC(=O)NCCOc2cccnc2)c1 (stereo not drawn)	8.71%
O=C(COC(=O)CNC(=O)c1ccc(Cl)cc1Cl)NC1CCCCC1	7.92%
O=C(c1ccc(F)cc1)N1CCN=C1c1ccccc1	9.99%
CCN(CC(=O)N1CCCCCC1)S(=O)(=O)c1ccc(Cl)cc1	1.78%
CCc1cc2c(=O)n(-c3ccc(Br)cc3)cnc2s1	5.56%
Fc1cccc(-c2cc3nc4c(c(NCc5ccco5)n3n2)CCCC4)c1	-5.18%
O=C(CN1CCCCC1)Nc1ccc(S(=O)(=O)N2CCOCC2)cc1	3.46%
COc1ccc(C/C(C)=N/NC(=O)c2ccc(Cl)cc2)cc1	7.15%
COc1ccccc1CNS(=O)(=O)c1c(C)nc2scc(C)n2c1=O	-7.96%
Cc1nc2ccc(NC(=O)c3cccnc3)cc2s1.O=C(O)C(=O)O	5.1%
COc1cccc(NC(=O)CN(C)C(=O)CC2Sc3ccccc3NC2=O)c1 (stereo not drawn)	1.85%
COc1ccc(/C=C2/C(=O)N(CC3CCCO3)C(=S)N2C)c(OC)c1 (stereo not drawn)	0.507%
COc1ccc(CCn2c(NN=C3CCCCC3)nc3c2c(=O)[nH]c(=O)n3C)cc1	9.97%
Cc1cccc(NC(=S)NC(=O)CCc2ccccc2)c1C	10.2%
CC(C)c1ccc(-c2csc3ncnc(N4CCN(C)CC4)c23)cc1	10.8%
CC(NC(=S)NC1CCC(C(C)(C)C)CC1)c1ccccc1 (stereo not drawn)	18.1%
CCN(Cc1ccccc1)C(=O)CSc1nc(C)cc(=O)[nH]1	10.9%

SMILES	hERG current change (%, negative = inhibition) at 1uM
CSc1cccc(NC(=O)c2cccc3cccnc23)c1	5.79%
O=C1CCN(S(=O)(=O)c2cccs2)c2ccc(C(F)(F)F)cc2N1	8.68%
COc1ccc(CCNC(=O)COc2ccccc2[N+](=O)[O-])cc1OC	13.4%
CCOC(=O)CC(/C(C)=N\O)c1ccccc1 (stereo not drawn)	15.2%
O=C(N/N=C/c1cccnc1)C(O)(c1ccccc1)c1ccccc1	7.07%
CC1(C)C(c2ccccn2)=[N+]([O-])C(C)(C)N1O	17.2%
COc1cccc2c1OC1(C)CC2NC(=O)N1Cc1ccccc1 (stereo not drawn)	9.84%
N#CCc1ccc(Oc2ncccn2)cc1	18.7%
COc1ccccc1N(CC(=O)NCc1ccc(F)cc1)C(=O)CCC(=O)Nc1nccs1	4.87%
CCOC(=O)N1CCN(C(=O)/C=C/c2ccc([N+](=O)[O-])cc2)CC1	-49.3%
CCOC(=O)C1CCN(S(=O)(=O)CCNC(=O)c2ccc3c(c2)OCO3)CC1	9.09%
Cc1ccc(-c2csc(-c3ccncc3)n2)cc1	7.86%
C=CCn1c(SCc2csc(-c3ccc(C)cc3)n2)nnc1-c1ccccc1OC	3.65%
COc1cc2[nH]c(=O)n(CCCC(=O)NC3CCCCC3)c(=O)c2cc1OC	10.7%
COc1ccc(S(=O)(=O)NCC(=O)Nc2ccc(F)cc2)cc1	8.36%
Cc1ccc(C(=O)CC(C(=O)O)n2cccn2)cc1 (stereo not drawn)	8.76%
O=[N+]([O-])c1ccc(NCc2ccccc2)nc1	-5.21%
Cc1nn(CC(=O)OCC(=O)NCCc2ccc(S(N)(=O)=O)cc2)c(C)c1[N+](=O)[O-]	5.11%
COC(=O)c1ccc2c(c1)nc(C)n2CCO	11.4%
Cc1cc(C)nc(-n2nc(C)c3c(C(=O)O)cc(-c4cccc(Br)c4)nc32)n1	3.43%
Cc1[nH]c2ccc(C(C)C)cc2c1CC(=O)O	13.6%
COc1cccc(NC(=O)c2cn(C)c(=O)c3cc(OC)c(OC)cc23)c1	13.7%
CC(NC(=O)C1CCCC1)c1ccc(Br)cc1 (stereo not drawn)	12.3%

SMILES	hERG current change (%, negative = inhibition) at 1uM
COc1ccccc1NC(=O)COC(=O)c1c[nH]c(=O)[nH]c1=O	8.84%
O=C(Nc1ccc(N2CCOCC2)cc1)c1cc(F)c(F)cc1Cl	8.7%
CCCCN(CC)CCNC(=O)c1cc2c(=O)n(C)c3ccccc3c2s1	13.6%
COc1ccc(-c2nn(-c3ccccc3)cc2/C=C/C(=O)O)cc1[N+](=O)[O-]	7.5%
NNC(=O)c1cc2nc(-c3cccs3)cc(C(F)(F)F)n2n1	-6.62%
COc1ccc(COCC(O)CN(Cc2ccco2)Cc2ccccc2O)cc1 (stereo not drawn)	6.64%
O=C1c2cccc3c([N+](=O)[O-])ccc(c23)C(=O)N1c1nccs1	5.32%
CCC1(C(=O)c2ccccc2)C(c2cccc([N+](=O)[O-])c2)C1(C(=O)OC)C(=O)OC (stereo not drawn)	3.5%
O.OC[C@@H](O)[C@@H](O[C@@H]1O[C@H](CO)[C@H](O)[C@H](O)[C@H]1O)[C@H](O)[C@@H](O)CO	16.2%
Cc1ccc(S(=O)(=O)N(C)CC(=O)Nc2cccnc2)cc1	10.8%
Nc1nc(SCC(=O)NC2CCCCCC2)[nH]c(=O)c1-c1ccccc1	2.25%
CCOC(=O)C1CCN(S(=O)(=O)c2ccc3c(c2)CCCN3C(C)=O)CC1	3.72%
O=C(NC1CCN(Cc2ccc(F)cc2)CC1)c1ccccc1	-15.9%
Cc1ccc(S(=O)(=O)NC(CC(C)C)C(=O)Nc2ccncc2)cc1 (stereo not drawn)	11%
CN(C)CCCN1C(=O)c2oc3ccc(Cl)cc3c(=O)c2C1c1cccnc1 (stereo not drawn)	-6.72%
N#Cc1c(N)n[nH]c1Cc1cccc2ccccc12	8.95%
O=C1OC2(CCCC2)OC(=O)C1=Cc1c[nH]c2ccccc12	8.35%
O=C1c2ccccc2N(Cc2ccc(Cl)cc2)C2=NCCN12	-1.71%
OCC1(Cc2ccccc2)CCCN(Cc2ccc3c(c2)OCCO3)C1 (stereo not drawn)	-1.51%
COc1cccc(NC(=O)CSc2nccn2-c2cccc(OC)c2)c1	6.92%
O=C(c1ccco1)N(Cc1ccc2c(c1)OCO2)Cc1cc2cc3c(cc2[nH]c1=O)OCO3	7.71%
CCOC(=O)c1cnc2c(N=Nc3ccccc3)c(N)nn2c1N	20.6%
CCOc1ccc(NC(=O)Cc2c(O)c3ccccc3[nH]c2=O)cc1	15.5%

SMILES	hERG current change (%, negative = inhibition) at 1uM
CC(C)(C)NC(=S)NCC1CC1	11.4%
O=S1(=O)CCC(NS(=O)(=O)c2cccc3cccnc23)C1 (stereo not drawn)	13.7%
CCCOc1ccc(NC(=O)C2CC(=O)N/C(=N/N=C(C)/C=C/c3ccc(N(C)C)cc3)S2)cc1 (stereo not drawn)	15.4%
CCC1(c2ccc(F)cc2)NC(=O)N(CC(=O)N2c3ccccc3CC2C)C1=O (stereo not drawn)	8.7%
CC1CCC(NC(=O)c2ccc3snnc3c2)CC1 (stereo not drawn)	24.1%
CCN1CCN(C(=O)c2nn(C)c3c2CS(=O)(=O)c2ccccc2-3)CC1	17.8%
Clc1ccc(Nc2nc(NCCN3CCOCC3)nc(N3CCOCC3)n2)cc1	-15.5%
CCc1ccc(S(=O)(=O)NCc2cccnc2)cc1	18.6%
COC(=O)Cc1csc(NCc2ccccc2)n1	9.75%
COc1ccc(S(=O)(=O)N2CCCC2C(=O)NCc2cccs2)cc1 (stereo not drawn)	2.29%
COC(=O)C1=C(c2ccc(-c3ccccc3)c(F)c2)C[C@@H]2CC[C@H]1N2C(=O)N1CCc2cc(OC)c(OC)cc2C1	15%
CCCOC(=O)CCCCC1SCC(NC(=O)OC)C1NC(=O)OC (stereo not drawn)	8.79%
Nc1nonc1-n1nnc(C(=O)N/N=C/c2ccc(Cl)cc2Cl)c1CN1CCCC1	10.5%
CC(NCc1ccc(S(N)(=O)=O)cc1)C(=O)N1c2ccccc2CC1C.O=C(O)C(=O)O (stereo not drawn)	-2.79%
CCCn1c(O)c(N=NC(=O)CNC(=O)/C=C/c2ccc(OC)cc2)c2ccccc21	14.2%
C=CCC(=O)NC(C)c1cnn(-c2ccccc2C)c1C (stereo not drawn)	8.99%
CCOc1ccc(C(C)=O)cc1Cn1ccsc1=N.Cl	10.4%
COc1ccc(C(=O)C2CCN(C(=S)NCCc3ccc(OC)c(OC)c3)CC2)cc1	0.746%
O=c1oc(-c2ccco2)nc2sc3c(c12)CCCCC3	5.62%
COCCNC(=S)Nc1ccccn1	8.77%
COc1ccc(C(CCN2CCCC2)c2c(OC)cc(OC)c3c(-c4ccccc4)cc(=O)oc23)cc1 (stereo not drawn)	-2.86%
